The % Inhibition is the change of the read-out against control, counted positive when it falls.

The campaign covered roughly 150,000 compounds. About 540 (0.36%) showed an effect of 50% or more. The list shows a part of the results.

Results on 87 molecules are retold here after ChEMBL document CHEMBL4888484, “Replenishing the malaria drug discovery pipeline: Screening and hit evaluation of the MMV Hit Generation Library 1 (HGL1) against asexual blood stage Plasmodium falciparum ,using a nano luciferase reporter read-out” (2022).

This test concerns Plasmodium falciparum. The test can be described thus: Primary screen in NF54 nanoGlo assay, in single point, at 2uM, 72h; a lower Z score goes with more inhibition. It counts as functional, Erythrocyte. The conditions noted are these: timepoint 72 hour.
With `CCn1c(=O)cc(C(F)(F)F)[nH]c1=O`, the “% Inhibition” value stood at 6% and the Z score is -0.74.
In the case of `COc1ccc(S(=O)(=O)N2CCC3(CC2)N[C@@H](C)C(=O)N3CCc2ccc(OC)c(OC)c2)cc1`, the “% Inhibition” value stood at 0% and the Z score is given as 0.04.
On to `CN(C)Cc1ccc(-c2nc(C(C)(C)C)no2)o1`, for which the “% Inhibition” value is listed as -3% and the Z score worked out at 0.55.
For the molecule `CN1C(=O)N[C@]2(CCN(C(=O)NCc3noc4c3CCCC4)C2)C1=O`, the “% Inhibition” value was -8% and the Z score turned out to be 1.09.
Consider `CN1C[C@]2(C(=O)c3ccccc3)CN(C)C[C@](C(=O)c3ccccc3)(C1)C2`, for which the “% Inhibition” value worked out at 24% and the Z score is on record as -3.12.
Take `O=C(NC1CCCC1)c1nc[nH]c1C(=O)NCc1ccccc1`: the “% Inhibition” value worked out at 15% and the Z score is listed as -1.76.
On to `Cc1nn(CC(=O)NCCc2cscn2)c(=O)n1CCc1ccccc1`, for which the “% Inhibition” value is -5% and the Z score was 0.51.
For `Cc1cccnc1C(=O)N1CC2(C[C@@H](C(=O)N3CCCC3)N(C)C2)C1`, the “% Inhibition” value was -9% and the Z score amounted to 1.06.
In the case of `CCCC[C@H](CC)C(=O)N1CCC(Cc2ccc3c(c2)OCO3)CC1`, the “% Inhibition” value is given as -10% and the Z score was 1.01.
For `CCNC(=O)N1CCN(C(=O)c2ccc3cc[nH]c3c2)CC1` the same measures were 12% and -1.91.
As to `CCC(C)(C)NCC(=O)Nc1cc(C)on1`, the “% Inhibition” value was -19% and the Z score came out at 3.98.
For `Cc1cc(C)n(CC(=O)Nc2csc(-c3ccccn3)n2)n1`, the “% Inhibition” value is 4% and the Z score was -0.5.
As for `O=C1NC2(CCCCC2)C(=O)N1CN1CCN(Cc2ccc3c(c2)CCO3)CC1`, the “% Inhibition” value is on record as -7% and the Z score is reported as 1.29.
As for `CC(C)NC(=O)NC[C@H]1CCCC1(F)F`, the “% Inhibition” value is -14% and the Z score is given as 1.34.
As for `CN(CCc1ccccn1)C(=O)c1cn2ccnc(-c3ccccc3)c2n1`, the “% Inhibition” value is 30% and the Z score was -3.35.
In the case of `Cc1ccc(F)cc1C(=O)NC[C@H]1CCCN(CCn2cc(Cl)cn2)C1`, the “% Inhibition” value is on record as -5% and the Z score is recorded as 0.73.
With `Cc1ccc(Cl)cc1N1CCN(C(=O)c2csc(-c3cccs3)n2)CC1`, the “% Inhibition” value is -23% and the Z score is 2.87.
For `COCC1(C(=O)N(C)CC2(CO)CCCC2)CCC1`, in that order: -11% and 2.12.
On to `CCc1sc(N)nc1CC(=O)OC`, for which the “% Inhibition” value is 8% and the Z score is reported as -1.09.
Take `COC1(C)CC(NC(=O)CCc2cscn2)C1(C)C` (centres undefined): the “% Inhibition” value is -10% and the Z score is on record as 1.05.
For `C[C@H](NC(=O)N1CCC(C)(C(=O)O)CC1)C1CCC(F)CC1` (some centres undefined), the “% Inhibition” value was -8% and the Z score stood at 0.69.
For `Cc1csc(CCNc2cncc(C(N)=O)n2)n1`, in that order: -2% and 0.35.
For `CC(C)N[C@H]1CCCN(C(=O)c2cc3c(C4CC4)cccc3[nH]2)C1`, the “% Inhibition” value came out at 18% and the Z score was -2.31.
Consider `CCOC(=O)[C@@H]1CCCN(C(=O)c2cnn3cccc(OC)c23)C1`, for which the “% Inhibition” value came to 1% and the Z score is given as -0.12.
Regarding `OC[C@@]1(CCOc2ccccc2)CCCN(c2ncnc3sccc23)C1`, the “% Inhibition” value is -16% and the Z score is 1.57.
Take `CN(C)C(C)(C)CNCc1c[nH]nc1-c1cccs1`: the “% Inhibition” value is given as 7% and the Z score was -1.38.
For `O=C(NCc1cc2n(n1)CCN(C1CCCCC1)C2)c1cccc(F)c1F` the same measures were -7% and 1.17.
With `O=C(COc1ccccc1)N1CC(Oc2cccnc2)C1`, the “% Inhibition” value was -8% and the Z score is reported as 1.56.
In the case of `Cc1ccc(CN(C(=O)NCc2ccco2)[C@H]2CCc3ccccc32)cc1`, the “% Inhibition” value is -5% and the Z score worked out at 0.82.
Turning to `CCN(CC)CCCNc1ccc(C2CCCC2)cc1`, the “% Inhibition” value was -7% and the Z score was 1.32.
In the case of `C[C@@H](c1cccnc1)N(C)CCCc1ccc2c(c1)CCO2`, the “% Inhibition” value is reported as -10% and the Z score stood at 1.51.
Consider `CCn1nc(-c2cc(F)cc(C(F)(F)F)c2)nc1N(C)C`, for which the “% Inhibition” value is recorded as -6% and the Z score was 0.77.
With `Cc1nc(CN(CC2CCN(Cc3ccccc3F)CC2)C[C@H]2CCCO2)c[nH]1`, the “% Inhibition” value is 7% and the Z score is given as -0.93.
As for `C[C@H](NC(=O)Nc1cc(=O)n(C)cc1Br)C1CCC1`, the “% Inhibition” value is given as -8% and the Z score is on record as 1.3.
For `O=C(NC[C@]1(O)CCc2ccccc2C1)C(=O)NC1CC1` the same measures were -18% and 2.29.
As for `COCC(=O)N[C@H]1CCC12CCN(C(=O)CC1CCCC1)CC2`, the “% Inhibition” value is given as -14% and the Z score is on record as 1.83.
On to `Cc1cnc(CCNC(=O)Nc2ccnc(C(=O)N3CCN(C)CC3)c2)c(C)c1`, for which the “% Inhibition” value turned out to be 10% and the Z score is -1.25.
For `O=C(c1ccc2c(c1)OCO2)N1CC(OCC(F)F)C1`, the “% Inhibition” value is -3% and the Z score turned out to be 0.4.
Turning to `COc1ccc(C(=O)Nc2cc(-c3cccc(C)c3)nn2-c2ccccc2)cc1`, the “% Inhibition” value was -2% and the Z score was found to be 0.24.
In the case of `O=C1CC2(CCN(C3CCc4ccccc4NC3=O)C2)CN1` (centres undefined), the “% Inhibition” value was -1% and the Z score is reported as 0.16.
`CC(OC1CCCCCC1)C(=O)N1CCNCC1c1ccncc1` (centres undefined): the “% Inhibition” value is on record as 5% and the Z score was -0.68.
Take `Cc1n[nH]cc1CNC[C@H](CC(C)C)N(C)C`: the “% Inhibition” value is -14% and the Z score amounted to 1.72.
On to `Cc1nn(C)cc1S(=O)(=O)n1c(=O)cc(C(F)(F)F)c2cn(C(C)C)nc21`, for which the “% Inhibition” value came to 31% and the Z score is -3.54.
Take `CCn1ccnc1C(=O)Nc1ccc(OC)nc1`: the “% Inhibition” value was 35% and the Z score was -0.71.
For `C=CCOC(=O)Nc1cc(Cl)c(Cl)cc1Cl` the same measures were 7% and -0.83.
For `CCc1nc(C2(c3ccccc3)CCC2)no1`, the “% Inhibition” value is on record as -5% and the Z score was found to be 0.89.
Regarding `C/C=C(\C)CN1CC[C@@]2(CCCN(Cc3cc(OC)ccc3F)C2=O)C1`, the “% Inhibition” value is -4% and the Z score is given as 0.42.
Turning to `CC[C@](C)(OC)c1nc(-c2ccc(C(F)(F)F)[nH]c2=O)no1`, the “% Inhibition” value was determined as 2% and the Z score is given as -0.18.
For `CC(C)C[C@@H]1N=C(O)N(c2ccc3c(c2)OCO3)C1=O`, in that order: -6% and 0.5.
In the case of `CC[C@H](NS(=O)(=O)c1cccc2nn(C)nc12)C1CC(O)C1` (some centres undefined), the “% Inhibition” value is given as -6% and the Z score amounted to 1.02.
On to `Cc1cc(C)n(-c2cncc(NCC(C)(C)N3CCOCC3)n2)n1`, for which the “% Inhibition” value is reported as -15% and the Z score is recorded as 1.73.
Consider `COCCC[C@H]1CCCCN1C(=O)c1cccc(O)n1`, for which the “% Inhibition” value was determined as 0% and the Z score came to 0.08.
`Cc1nc(-c2ccc(C(=O)NCCCN3CCCC[C@@H]3CO)cc2)nn1C`: the “% Inhibition” value is reported as -9% and the Z score came to 1.76.
Consider `CCN(C)c1ccc(C(N)=NOCc2ncc(C)o2)cc1`, for which the “% Inhibition” value is listed as -4% and the Z score is recorded as 0.72.
With `Cc1nnc(NC(=O)c2cnn(Cc3ccccc3)c2)s1`, the “% Inhibition” value is on record as -10% and the Z score worked out at 1.35.
In the case of `COc1ccccc1-c1nc(NCc2ccccc2)nc2nn(-c3cccc(F)c3)c(N)c12`, the “% Inhibition” value is given as -8% and the Z score was 1.42.
Consider `Cc1cnn(-c2cc3c(cc2C(N)=O)OCO3)c1`, for which the “% Inhibition” value is -10% and the Z score amounted to 1.13.
Turning to `C[C@H](NC(=O)Cc1cccc(F)c1)c1noc(Cc2ccccc2)n1`, the “% Inhibition” value amounted to 10% and the Z score is reported as -1.68.
On to `Cc1c(C(=O)O)nn(-c2ccc(F)cc2)c1Oc1ccc(NC(=O)C2CCC2)cc1S(=O)(=O)NC(C)C`, for which the “% Inhibition” value was -6% and the Z score was 0.67.
As to `CCNC(=O)[C@H]1CCN(Cc2cc(C#N)n(C)c2C)C1`, the “% Inhibition” value is given as -13% and the Z score is 1.71.
`Cc1ccc(S(=O)(=O)Nc2nnc(-c3ccsc3)s2)s1`: the “% Inhibition” value is given as -13% and the Z score worked out at 2.18.
As for `Cc1ccc(-c2ncccc2C(=O)Nc2ccccc2F)s1`, the “% Inhibition” value came out at 5% and the Z score is given as -0.66.
For `CCC[C@@]1(C)C(=O)NCCN1C(=O)c1occc1C`, the “% Inhibition” value is reported as -9% and the Z score worked out at 1.27.
As to `O=C(O)c1ccc(CN2C[C@H]3C[C@@H](O)CC[C@H]3C2)c(F)c1`, the “% Inhibition” value is listed as -11% and the Z score stood at 1.29.
For `O=C(NCCc1noc([C@@H]2CCCO2)n1)c1ccnnc1` the same measures were -12% and 1.74.
Turning to `Cc1cc(NC(=O)NC(C)(C)CN(C)Cc2ccccc2)nn1C`, the “% Inhibition” value is -9% and the Z score turned out to be 1.61.
With `O=c1[nH]nc(-c2ccccc2)c2c1CCCC2`, the “% Inhibition” value is reported as -3% and the Z score is recorded as 0.53.
For `O=C1CC[C@](CCC(=O)N2CCN(c3ncc4ccccc4n3)CC2)(Cc2cccs2)N1`, in that order: 6% and -0.75.
For `CN(C)S(=O)(=O)CCNC(=O)C(=O)N1CCc2ccccc21`, in that order: -14% and 1.38.
As for `Cn1cnc(CNC(=O)Nc2nc3c(s2)CC(C)(C)CC3)n1`, the “% Inhibition” value was -11% and the Z score was 1.26.
In the case of `Cc1cc(C)n(CCCNC(=O)[C@@H]2CCCC[C@@H]2C(=O)Nc2ccc(Cl)cc2)n1`, the “% Inhibition” value is -6% and the Z score was 0.81.
Regarding `CN([C@H]1CCCOC1)S(=O)(=O)c1ccc2c(c1)C(=O)CCC2`, the “% Inhibition” value was -6% and the Z score is listed as 0.58.
`CC(C)(C)c1ccc(-c2nc(N)ns2)cc1`: the “% Inhibition” value is given as -1% and the Z score is 0.15.
For the molecule `CC(C)CNC(=O)C[C@H](c1cccc(C(F)(F)F)c1)c1cn(Cc2ccccc2)c2ccccc12`, the “% Inhibition” value is -3% and the Z score was 0.36.
Regarding `Nc1cccc(F)c1C(=O)C(F)(F)F`, the “% Inhibition” value is -3% and the Z score worked out at 0.42.
Turning to `NC(=NCC1CC1)NCCc1ccccc1`, the “% Inhibition” value is 2% and the Z score is given as -0.32.
`CC1CN(C(=O)NCCOc2cccnc2)C1c1ccccc1` (centres undefined): the “% Inhibition” value was -7% and the Z score was 1.38.
With `CN(c1ccc(Cl)c(C(=O)NC2CCCC2)c1)S(C)(=O)=O`, the “% Inhibition” value was 26% and the Z score is given as -2.97.
With `O=C(CCc1ccc2c(c1)OCCO2)Nc1ccc2c(c1)OCO2`, the “% Inhibition” value is given as -7% and the Z score is on record as 1.38.
As for `CCC(O)C1CCCCN1S(C)(=O)=O` (centres undefined), the “% Inhibition” value is -2% and the Z score is 0.27.
With `COc1ccc(Cn2c(C)cnc2[C@@H]2CCCN2C(=O)CC2CCCC2)cc1`, the “% Inhibition” value was -13% and the Z score is reported as 1.69.
Consider `COC[C@@H]1CN(c2cnccn2)C[C@H]1C(=O)NCCc1ccccn1`, for which the “% Inhibition” value is -12% and the Z score worked out at 1.88.
On to `CCCn1c(=O)[nH]c2cc(-c3noc([C@H](C)Oc4ccccc4)n3)ccc21`, for which the “% Inhibition” value is on record as -12% and the Z score is on record as 1.56.
With `CCCn1c([C@H]2CCN(S(=O)(=O)c3cnn(CC)c3)C2)nc2cccnc21`, the “% Inhibition” value is recorded as -5% and the Z score was 0.6.
For `CCc1ncc(S(=O)(=O)N2CCCn3c(cc4ccccc43)C2)s1`, the “% Inhibition” value came to 10% and the Z score is recorded as -1.38.
Consider `CC1CCCN(S(=O)(=O)CCS(C)(=O)=O)C1CN` (centres undefined), for which the “% Inhibition” value is 1% and the Z score was -0.18.
As for `Cc1cc(C)cc(-c2nnc(NC(=O)N3CCC4OCCN(C)C4C3)s2)c1` (centres undefined), the “% Inhibition” value was -10% and the Z score is on record as 0.93.
